According to the supplement of paper PMC9151546:
Repeats are few or missing, and single values can be far off.

Legend:
CHO-K1 [1] = experiment: micronucleus frequency (% of nucleated events); higher = more micronuclei (genotoxic)
CHO-K1 [2] = experiment: hypodiploid nuclei frequency (% of nucleated events); higher = more hypodiploid events (aneugenic)
Description: (§1)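 Flow-cytometric in vitro micronucleus assay (Litron MicroFlow) in CHO-K1 cells in 96-well plates, 19 concentrations (4.5-200 µM, n=1 per concentration). Without S9, cells were exposed for 24 h and sampled at 48 h. With Aroclor 1254-induced rat liver S9, cells were exposed for 3-4 h and sampled at 27-28 h. Read-outs are %MN and %hypodiploid nuclei relative to nucleated events, and relative survival as the nuclei-to-bead ratio versus the 1% DMSO vehicle control (x100).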

CHO-K1 [3] = experiment: relative survival (nuclei to bead ratio vs DMSO control) (% of vehicle control); higher = more surviving cells
Description: as §1
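For hypodiploid nuclei frequency (% of nucleated events) in this document: hypodiploid nuclei gated on a flow cytometer with 488 nm excitation after SYTOX Green staining, cultures at 37 °C, positive controls vinblastine without S9 and cyclophosphamide with S9.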
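For micronucleus frequency (% of nucleated events) in this document: cells lysed with nuclei stained by SYTOX Green, then micronucleus-gated events counted against nucleated events by flow cytometry with 488 nm excitation.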
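For relative survival (nuclei to bead ratio vs DMSO control) in this document: Lysed-cell nuclei stained with SYTOX Green and counted against counting beads by flow cytometry at 488 nm excitation, with vinblastine (no S9) and cyclophosphamide (plus S9) as positive controls.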

Cc1cccc(C)c1N [2,6-Dimethylaniline]
Conditions	hypodiploid nuclei frequency, CHO-K1 [2] [%]	micronucleus frequency, CHO-K1 [1] [%]	relative survival, CHO-K1 [3]
concentration: 4.48 (µM), S9 metabolic activation: with S9, exposure time: 3-4 hours	0.22	1.44	139
concentration: 4.48 (µM), S9 metabolic activation: without S9, exposure time: 24 hours	0.58	2.32	99.8
concentration: 5.6 (µM), S9 metabolic activation: with S9, exposure time: 3-4 hours	0.4	1.06	135
concentration: 5.6 (µM), S9 metabolic activation: without S9, exposure time: 24 hours	0.46	1.82	99.8
concentration: 7 (µM), S9 metabolic activation: with S9, exposure time: 3-4 hours	0.18	1.28	141
concentration: 7 (µM), S9 metabolic activation: without S9, exposure time: 24 hours	0.46	1.58	90.9
concentration: 8.75 (µM), S9 metabolic activation: with S9, exposure time: 3-4 hours	0.14	1.24	144
concentration: 8.75 (µM), S9 metabolic activation: without S9, exposure time: 24 hours	0.7	1.94	151
concentration: 10.9 (µM), S9 metabolic activation: with S9, exposure time: 3-4 hours	0.16	1	121
concentration: 10.9 (µM), S9 metabolic activation: without S9, exposure time: 24 hours	0.4	1.6	115
concentration: 13.7 (µM), S9 metabolic activation: with S9, exposure time: 3-4 hours	0.24	1.1	120
concentration: 13.7 (µM), S9 metabolic activation: without S9, exposure time: 24 hours	0.62	1.4	111
concentration: 17.1 (µM), S9 metabolic activation: with S9, exposure time: 3-4 hours	0.2	1.14	129
concentration: 17.1 (µM), S9 metabolic activation: without S9, exposure time: 24 hours	0.32	1.9	99.8
concentration: 21.4 (µM), S9 metabolic activation: with S9, exposure time: 3-4 hours	0.24	1.38	120
concentration: 21.4 (µM), S9 metabolic activation: without S9, exposure time: 24 hours	0.74	1.46	111
concentration: 26.7 (µM), S9 metabolic activation: with S9, exposure time: 3-4 hours	0.18	1.14	173
concentration: 26.7 (µM), S9 metabolic activation: without S9, exposure time: 24 hours	0.36	1.86	108
concentration: 33.4 (µM), S9 metabolic activation: with S9, exposure time: 3-4 hours	0.08	1.48	116
concentration: 33.4 (µM), S9 metabolic activation: without S9, exposure time: 24 hours	0.54	1.34	57.4
concentration: 41.7 (µM), S9 metabolic activation: with S9, exposure time: 3-4 hours	0.18	0.96	143
concentration: 41.7 (µM), S9 metabolic activation: without S9, exposure time: 24 hours	0.5	1.22	67.2
concentration: 52.2 (µM), S9 metabolic activation: with S9, exposure time: 3-4 hours	0.14	1.02	120
concentration: 52.2 (µM), S9 metabolic activation: without S9, exposure time: 24 hours	0.6	2.14	59
concentration: 65.2 (µM), S9 metabolic activation: with S9, exposure time: 3-4 hours	0.18	1.06	136
concentration: 65.2 (µM), S9 metabolic activation: without S9, exposure time: 24 hours	0.78	1.64	50.8
concentration: 81.5 (µM), S9 metabolic activation: with S9, exposure time: 3-4 hours	0.18	1	131
concentration: 81.5 (µM), S9 metabolic activation: without S9, exposure time: 24 hours	0.8	2.32	87.6
concentration: 102 (µM), S9 metabolic activation: with S9, exposure time: 3-4 hours	0.18	1.04	108
concentration: 102 (µM), S9 metabolic activation: without S9, exposure time: 24 hours	0.94	1.7	72.2
concentration: 127 (µM), S9 metabolic activation: with S9, exposure time: 3-4 hours	0.18	1.1	124
concentration: 127 (µM), S9 metabolic activation: without S9, exposure time: 24 hours	0.8	2.18	87.6
concentration: 159 (µM), S9 metabolic activation: with S9, exposure time: 3-4 hours	0.18	1	136
concentration: 159 (µM), S9 metabolic activation: without S9, exposure time: 24 hours	1.26	2.02	96.3
concentration: 199 (µM), S9 metabolic activation: with S9, exposure time: 3-4 hours	0.22	1.16	118
concentration: 199 (µM), S9 metabolic activation: without S9, exposure time: 24 hours	1.22	2.8	59
